Assay results published in publication PMC4336329 (PLoS ONE, 2015).
The campaign covered roughly 310,000 compounds. About 14,000 (4.5%) showed an effect of 50% or more. Effects have a minus sign here. The list shows a part of the results.

molecular target: human ether-à-go-go-related gene (hERG) potassium channel (human, UniProt Q12809); test: primary screen, population patch clamp on CHO cells stably expressing hERG
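Note: peak tail current of the secondary pulse compared with the same well before compound.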

human ether-à-go-go-related gene (hERG) potassium channel, sequence (Q12809 whole entry, looked up): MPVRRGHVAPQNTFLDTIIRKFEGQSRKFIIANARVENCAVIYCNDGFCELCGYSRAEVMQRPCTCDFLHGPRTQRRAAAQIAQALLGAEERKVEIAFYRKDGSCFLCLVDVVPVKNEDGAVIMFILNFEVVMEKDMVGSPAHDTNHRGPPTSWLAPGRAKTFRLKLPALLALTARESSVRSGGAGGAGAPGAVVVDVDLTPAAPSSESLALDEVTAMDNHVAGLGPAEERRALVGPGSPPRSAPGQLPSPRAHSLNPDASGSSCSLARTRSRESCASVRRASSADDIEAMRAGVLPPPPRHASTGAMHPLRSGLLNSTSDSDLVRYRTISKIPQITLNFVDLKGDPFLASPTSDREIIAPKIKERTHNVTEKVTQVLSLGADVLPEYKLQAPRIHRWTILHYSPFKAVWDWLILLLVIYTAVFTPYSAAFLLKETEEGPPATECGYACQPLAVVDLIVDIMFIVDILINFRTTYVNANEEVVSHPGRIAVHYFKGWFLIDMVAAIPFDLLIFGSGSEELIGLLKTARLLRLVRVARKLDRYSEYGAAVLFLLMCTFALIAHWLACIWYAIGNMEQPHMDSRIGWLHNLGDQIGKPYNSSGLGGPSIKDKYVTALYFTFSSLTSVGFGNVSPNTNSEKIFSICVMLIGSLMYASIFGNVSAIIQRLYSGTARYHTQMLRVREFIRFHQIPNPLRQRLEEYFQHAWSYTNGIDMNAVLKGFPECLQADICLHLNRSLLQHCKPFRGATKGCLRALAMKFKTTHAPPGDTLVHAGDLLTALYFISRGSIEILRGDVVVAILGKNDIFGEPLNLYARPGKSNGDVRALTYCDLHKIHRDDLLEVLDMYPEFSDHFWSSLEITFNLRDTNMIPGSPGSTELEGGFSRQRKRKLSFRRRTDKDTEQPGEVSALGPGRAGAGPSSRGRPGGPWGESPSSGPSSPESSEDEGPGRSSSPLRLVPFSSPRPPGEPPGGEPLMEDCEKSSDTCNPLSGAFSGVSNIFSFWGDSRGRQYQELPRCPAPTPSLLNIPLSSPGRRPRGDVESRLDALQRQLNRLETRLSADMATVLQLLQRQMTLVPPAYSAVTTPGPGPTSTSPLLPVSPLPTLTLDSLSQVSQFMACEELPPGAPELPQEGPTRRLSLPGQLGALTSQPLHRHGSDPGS

| SMILES | hERG current change (%, negative = inhibition) at 10uM [%] |
| --- | --- |
| COc1ccc(OC)c(NC(=O)CSc2nnc(NC(=O)c3ccco3)s2)c1 | 13.8 |
| S=c1[nH]nc(C2CCCCC2)n1/N=C/c1ccc(Br)cc1 | 13.3 |
| Cc1cn2c(-c3ccc(Cl)cc3)nnc2s1 | -33.3 |
| CCCCN(C(=O)CN1C(=O)C2CCCCC2C1=O)c1c(N)n(CCC)c(=O)[nH]c1=O (centres unmarked) | 12.2 |
| CCn1c(SCC(=O)c2c[nH]c3ccccc23)nnc1-c1cccs1 | 3.13 |
| COC1CCCCC1NS(=O)(=O)c1ccc(Cl)cc1 (centres unmarked) | 5.52 |
| CN1CCN(NC(=O)c2ccccc2F)CC1 | 18 |
| O=C(O)c1cc2c(cc1Cl)N1CCCCCC1=NS2(=O)=O | -1.19 |
| Cc1ccc(NC(=O)Nc2c(C)[nH]c(=O)[nH]c2=O)cc1Cl | 17.7 |
| CCOC(=O)CSc1nc(C(C)C)nc2sc(C)c(C)c12 | 25.5 |
| CC(C)CC1NC(=O)N(CC(=O)N2CCN(S(=O)(=O)c3ccc4ccccc4c3)CC2)C1=O (centres unmarked) | -7.96 |
| Cc1ccc2c(c1)C(c1ccccc1)N(C(=O)c1ccc(Br)cc1)CC(=O)N2 (centres unmarked) | -10.2 |
| CCCNC(=O)COC(=O)/C=C/c1cccc(F)c1 | 3.33 |
| O=C(Nc1ccc(F)cc1)c1ccccc1F | -1.54 |
| COc1ccc(CNC(=O)c2ccc(C)o2)cc1 | 5.6 |
| CC(C)N1CCC(N2CCN(Cc3cccc4nonc34)CC2CCO)CC1 (centres unmarked) | 3.08 |
| Cc1ccccc1NC(=O)NC1CCCCCCC1 | 8.64 |
| Nc1ccc2c(c1)Oc1ccccc1C=C2 | -12.7 |
| Cc1noc(C)c1S(=O)(=O)N(C)CC(=O)Nc1ccc(F)cc1 | 3.4 |

| SMILES | hERG current change (%, negative = inhibition) at 10uM [%] |
| --- | --- |
| OCCC1CN(CC2CCCCC2)CCN1CC1CCCCC1 (centres unmarked) | -28 |
| Cc1cc(C)c2nc(N3CCC(C(=O)NCCCN4CCCCC4)CC3)sc2c1 | -37.2 |
| O=c1cc(CSc2ccccc2)nc(-c2ccccc2)[nH]1 | 6.19 |
| CCC(C(=O)O)N1C(=O)/C(=C/C(C)=C/c2ccccc2)SC1=S (centres unmarked) | 6.55 |
| CCCCN(C(=O)c1ccc(NC2CC2)c([N+](=O)[O-])c1)c1c(N)n(CC(C)C)c(=O)[nH]c1=O | -2.38 |
| COc1ccc(S(=O)(=O)N2CCc3ccccc32)cc1C(=O)N1CCOCC1 | -0.239 |
| O=C(CN1C(=O)c2ccccc2S1(=O)=O)c1ccc(Cl)cc1Cl | -1.92 |
| COc1ccc(C2CC(=O)N(C)c3ccccc3S2)cc1OC (centres unmarked) | -3.09 |
| CC(NC(=O)CCc1nnc(-c2ccc(-c3ccccc3)cc2)o1)c1nc2ccccc2[nH]1 (centres unmarked) | -8.94 |
| CC(=O)c1ccc(N(C(=O)CNC(=O)c2ccco2)C(C(=O)NC2CCCC2)c2ccncc2)cc1 (centres unmarked) | 20.3 |
| CCOc1ccc(CCNC(=O)COC(=O)/C=C/c2ccc(OC)c(OC)c2)cc1OCC | -0.716 |
| COc1ccc(NC(=O)CN(c2ccccc2C)S(C)(=O)=O)c(OC)c1 | 11.7 |
| CC(=O)Nc1ccc(OC(=O)N(C)C)cc1 | -11.3 |
| O=C(Cc1ccc(S(=O)(=O)N2CCOCC2)s1)N(Cc1ccccc1)c1ccccc1 | -3.74 |
| CC(=O)Nc1ccc(OCc2nnc(-c3ccc(Cl)cc3)o2)cc1 | 1.1 |
| COc1ccc(Br)cc1CNC(=O)CCc1nc(-c2ccccc2F)no1 | 1.51 |
| Cc1ccc(S(=O)(=O)N2CCC(C(=O)N3CCc4ccccc43)CC2)cc1 | -3.76 |
| NC(=S)n1[nH]c(-c2ccc([N+](=O)[O-])cc2)c(N=Nc2ccc(O)cc2)c1=O | 4.06 |
| Cc1ccc(C(CC(=O)NCCCN(C)C)c2ccc(OC(C)C)cc2)cc1 (centres unmarked) | -42.9 |

| SMILES | hERG current change (%, negative = inhibition) at 10uM [%] |
| --- | --- |
| COc1ccc(/C=C/C(=O)NCc2cnn(C)c2C)cc1COc1ccc(Br)cc1 | 6.13 |
| CN1c2ccsc2C(=O)/C(=C\Nc2cccc(C(F)(F)F)c2)S1(=O)=O | 9.64 |
| COc1ccc(NS(=O)(=O)c2cccc(C(=O)N/N=C/c3ccc(O)cc3)c2)cc1 | 5.75 |
| CC(=O)CSc1ccc(S(=O)(=O)N2CCN(C)CC2)cn1 | 9.87 |
| Cc1ccc(S(=O)(=O)/N=C(/NC(=S)Nc2c(C)n(C)n(-c3ccccc3)c2=O)c2ccccc2)cc1 | 4.2 |
| [O-]/C(=C(\C(=S)NCc1ccccc1)[n+]1ccccc1)c1ccc(Cl)cc1 | 7.11 |
| O=C(c1ccccc1Sc1ccc([N+](=O)[O-])cc1Cl)N1CCOCC1 | -11.2 |
| Cc1nnc(SCc2ccc(C(=O)c3ccc(Cl)cc3)o2)n1-c1ccccc1 | -48.1 |
| CSc1cccc(CN2CCC(CO)(Cc3cccc(C(F)(F)F)c3)CC2)c1 | -64.4 |
| CC(C)/C=C1\CCCCC1N(C)C(=O)NC(C)C (centres unmarked) | 12.1 |
| CCC1(c2ccccc2)NC(=O)N(CC(=O)NNC(=O)CCN2CCN(c3ccccc3)CC2)C1=O (centres unmarked) | 18.6 |
| Cc1ccc(NC(=S)NCCc2ccccc2)c(C)c1 | 10.1 |
| O=C(O)c1cc(-c2ccc(Cl)cc2)n(-c2cccc(Cl)c2)n1 | 23.4 |
| COc1cc(C(=S)N2CCCC2)ccc1OC(=O)c1ccc(Cl)cc1[N+](=O)[O-] | 4.06 |
| CC(C)(C)n1nnnc1C(c1cc2cc3c(cc2[nH]c1=O)OCO3)N1CCN(c2ccccc2)CC1 (centres unmarked) | -22.4 |
| O=c1oc2ccccc2cc1N1CCOCC1 | -7.08 |
| Cc1ccc(OC(C)C(=O)N=Nc2c(O)[nH]c3ccc([N+](=O)[O-])cc23)cc1 (centres unmarked) | -33.3 |
| CN(C)c1ccc(/C=N/NC(=O)c2nonc2N)cc1[N+](=O)[O-] | 3.72 |
